Source: PMC12820563, “FoxP3 forms a head-to-head dimer in vivo and stabilizes its multimerization on adjacent microsatellites”
This is one part of the list.

These sequences were tested against T1, MBP-FoxP1dN (Mus musculus, UniProt P58462 326-579) (assay: PD-seq (MBP pull-down with sequencing); 20 mM Tris-HCl pH 7.5, 100 mM NaCl, 1.5 mM MgCl2, 0.4 uM protein, 0.1 uM dsDNA library, 30 min, room temperature, amylose pull-down; high values mean tight binding). Details: protein: recombinant; tags: His6-MBP; chain copies: 2; dsDNA, one strand shown.
T1 sequence: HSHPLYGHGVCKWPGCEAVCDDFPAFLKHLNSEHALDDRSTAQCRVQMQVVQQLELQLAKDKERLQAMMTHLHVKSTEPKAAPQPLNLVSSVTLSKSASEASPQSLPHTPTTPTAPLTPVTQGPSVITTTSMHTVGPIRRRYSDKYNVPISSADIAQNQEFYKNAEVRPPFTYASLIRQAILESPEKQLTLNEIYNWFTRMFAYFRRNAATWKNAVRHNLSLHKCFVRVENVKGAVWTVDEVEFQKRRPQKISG
In short: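 Binding is reads-per-million enrichment of pull-down over input, with replicates pooled. It comes from 30 min room-temperature incubation in Tris pH 7.5 buffer with NaCl and MgCl2 of 0.4 µM His6-MBP-tagged, N-terminally truncated mouse FoxP3 or FoxP1 fragment from E. coli with 0.1 µM Klenow-filled degenerate double-stranded DNA library, followed by amylose resin capture, three washes and Illumina sequencing of the released DNA.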

Row | Sequence | binding signal
1 | GATGATTGTTCTCCCAGCTGATGAATTGTCATTTTCGAGTAAACAAATTTTCCTAATCTTTCTGTTCAAGCGCCATCTAC | 1.3 RPM ratio (pull-down/input)
2 | GATGATTGTTCTCCCAGCTGATGAATTAACTCTTTCGAGTAAACAAATTTTCCTAATCTTTCTGTTCAAGCGCCATCTAC | 0.876 RPM ratio (pull-down/input)
3 | GATGATTGTTCTCCCAGCTGATGAATTATAGACATCGAGTAAACAAATTTTCCTAATCTTTCTGTTCAAGCGCCATCTAC | 1.21 RPM ratio (pull-down/input)
4 | GATGATTGTTCTCCCAGCTGATGAATTAACGGTCTCGAGTAAACAAATTTTCCTAATCTTTCTGTTCAAGCGCCATCTAC | 0.785 RPM ratio (pull-down/input)
5 | GATGATTGTTCTCCCAGCTGATGAATTCTGCTGCTCGAGTAAACAAATTTTCCTAATCTTTCTGTTCAAGCGCCATCTAC | 0.817 RPM ratio (pull-down/input)
6 | GATGATTGTTCTCCCAGCTGATGAATTAATCGCCTCGAGTAAACAAATTTTCCTAATCTTTCTGTTCAAGCGCCATCTAC | 0.916 RPM ratio (pull-down/input)
7 | GATGATTGTTCTCCCAGCTGATGAATTAGAAGTCTCGAGTAAACAAATTTTCCTAATCTTTCTGTTCAAGCGCCATCTAC | 0.866 RPM ratio (pull-down/input)
8 | GATGATTGTTCTCCCAGCTGATGAATTCGAGCGCTCGAGTAAACAAATTTTCCTAATCTTTCTGTTCAAGCGCCATCTAC | 0.761 RPM ratio (pull-down/input)
9 | GATGATTGTTCTCCCAGCTGATGAATTGACAACCTCGAGTAAACAAATTTTCCTAATCTTTCTGTTCAAGCGCCATCTAC | 1.19 RPM ratio (pull-down/input)
10 | GATGATTGTTCTCCCAGCTGATGAATTCATGCCTTCGAGTAAACAAATTTTCCTAATCTTTCTGTTCAAGCGCCATCTAC | 0.948 RPM ratio (pull-down/input)
11 | GATGATTGTTCTCCCAGCTGATGAATTCTTACTCTCGAGTAAACAAATTTTCCTAATCTTTCTGTTCAAGCGCCATCTAC | 0.863 RPM ratio (pull-down/input)
12 | GATGATTGTTCTCCCAGCTGATGAATTCCTACAATCGAGTAAACAAATTTTCCTAATCTTTCTGTTCAAGCGCCATCTAC | 1.13 RPM ratio (pull-down/input)
13 | GATGATTGTTCTCCCAGCTGATGAATTCACATCCTCGAGTAAACAAATTTTCCTAATCTTTCTGTTCAAGCGCCATCTAC | 0.852 RPM ratio (pull-down/input)
14 | GATGATTGTTCTCCCAGCTGATGAATTGTGGGCGTCGAGTAAACAAATTTTCCTAATCTTTCTGTTCAAGCGCCATCTAC | 0.998 RPM ratio (pull-down/input)
15 | GATGATTGTTCTCCCAGCTGATGAATTGGGAGCTTCGAGTAAACAAATTTTCCTAATCTTTCTGTTCAAGCGCCATCTAC | 0.806 RPM ratio (pull-down/input)
16 | GATGATTGTTCTCCCAGCTGATGAATTATGCAAGTCGAGTAAACAAATTTTCCTAATCTTTCTGTTCAAGCGCCATCTAC | 1.06 RPM ratio (pull-down/input)
17 | GATGATTGTTCTCCCAGCTGATGAATTTCGCTAATCGAGTAAACAAATTTTCCTAATCTTTCTGTTCAAGCGCCATCTAC | 0.968 RPM ratio (pull-down/input)
18 | GATGATTGTTCTCCCAGCTGATGAATTACTTGTTTCGAGTAAACAAATTTTCCTAATCTTTCTGTTCAAGCGCCATCTAC | 1.56 RPM ratio (pull-down/input)
19 | GATGATTGTTCTCCCAGCTGATGAATTATGGCGGTCGAGTAAACAAATTTTCCTAATCTTTCTGTTCAAGCGCCATCTAC | 0.903 RPM ratio (pull-down/input)
20 | GATGATTGTTCTCCCAGCTGATGAATTGACATCCTCGAGTAAACAAATTTTCCTAATCTTTCTGTTCAAGCGCCATCTAC | 1.19 RPM ratio (pull-down/input)
21 | GATGATTGTTCTCCCAGCTGATGAATTGGCACAGTCGAGTAAACAAATTTTCCTAATCTTTCTGTTCAAGCGCCATCTAC | 0.849 RPM ratio (pull-down/input)

Row | Sequence | binding signal
22 | GATGATTGTTCTCCCAGCTGATGAATTGATCTCGTCGAGTAAACAAATTTTCCTAATCTTTCTGTTCAAGCGCCATCTAC | 0.986 RPM ratio (pull-down/input)
23 | GATGATTGTTCTCCCAGCTGATGAATTTCTAAAATCGAGTAAACAAATTTTCCTAATCTTTCTGTTCAAGCGCCATCTAC | 1.2 RPM ratio (pull-down/input)
24 | GATGATTGTTCTCCCAGCTGATGAATTCATCCGATCGAGTAAACAAATTTTCCTAATCTTTCTGTTCAAGCGCCATCTAC | 0.817 RPM ratio (pull-down/input)
25 | GATGATTGTTCTCCCAGCTGATGAATTGACCGAATCGAGTAAACAAATTTTCCTAATCTTTCTGTTCAAGCGCCATCTAC | 1.06 RPM ratio (pull-down/input)
26 | GATGATTGTTCTCCCAGCTGATGAATTCCTTGCGTCGAGTAAACAAATTTTCCTAATCTTTCTGTTCAAGCGCCATCTAC | 0.884 RPM ratio (pull-down/input)
27 | GATGATTGTTCTCCCAGCTGATGAATTGTACCATTCGAGTAAACAAATTTTCCTAATCTTTCTGTTCAAGCGCCATCTAC | 1.07 RPM ratio (pull-down/input)
28 | GATGATTGTTCTCCCAGCTGATGAATTACAGCGGTCGAGTAAACAAATTTTCCTAATCTTTCTGTTCAAGCGCCATCTAC | 1.05 RPM ratio (pull-down/input)
29 | GATGATTGTTCTCCCAGCTGATGAATTGTATTGGTCGAGTAAACAAATTTTCCTAATCTTTCTGTTCAAGCGCCATCTAC | 1.62 RPM ratio (pull-down/input)
30 | GATGATTGTTCTCCCAGCTGATGAATTTTCTACGTCGAGTAAACAAATTTTCCTAATCTTTCTGTTCAAGCGCCATCTAC | 0.877 RPM ratio (pull-down/input)
31 | GATGATTGTTCTCCCAGCTGATGAATTCTTTGAGTCGAGTAAACAAATTTTCCTAATCTTTCTGTTCAAGCGCCATCTAC | 0.88 RPM ratio (pull-down/input)
32 | GATGATTGTTCTCCCAGCTGATGAATTTGGATAGTCGAGTAAACAAATTTTCCTAATCTTTCTGTTCAAGCGCCATCTAC | 0.91 RPM ratio (pull-down/input)
33 | GATGATTGTTCTCCCAGCTGATGAATTTCTTATGTCGAGTAAACAAATTTTCCTAATCTTTCTGTTCAAGCGCCATCTAC | 0.889 RPM ratio (pull-down/input)
34 | GATGATTGTTCTCCCAGCTGATGAATTGCTGAGTTCGAGTAAACAAATTTTCCTAATCTTTCTGTTCAAGCGCCATCTAC | 0.927 RPM ratio (pull-down/input)
35 | GATGATTGTTCTCCCAGCTGATGAATTAAAAGCATCGAGTAAACAAATTTTCCTAATCTTTCTGTTCAAGCGCCATCTAC | 1.37 RPM ratio (pull-down/input)
36 | GATGATTGTTCTCCCAGCTGATGAATTGTAGACTTCGAGTAAACAAATTTTCCTAATCTTTCTGTTCAAGCGCCATCTAC | 0.909 RPM ratio (pull-down/input)
37 | GATGATTGTTCTCCCAGCTGATGAATTCGCTATATCGAGTAAACAAATTTTCCTAATCTTTCTGTTCAAGCGCCATCTAC | 1.02 RPM ratio (pull-down/input)
38 | GATGATTGTTCTCCCAGCTGATGAATTCCGCTATTCGAGTAAACAAATTTTCCTAATCTTTCTGTTCAAGCGCCATCTAC | 0.879 RPM ratio (pull-down/input)
39 | GATGATTGTTCTCCCAGCTGATGAATTCTGGTACTCGAGTAAACAAATTTTCCTAATCTTTCTGTTCAAGCGCCATCTAC | 0.832 RPM ratio (pull-down/input)
40 | GATGATTGTTCTCCCAGCTGATGAATTTTGGTTCTCGAGTAAACAAATTTTCCTAATCTTTCTGTTCAAGCGCCATCTAC | 0.913 RPM ratio (pull-down/input)
41 | GATGATTGTTCTCCCAGCTGATGAATTACCAATTTCGAGTAAACAAATTTTCCTAATCTTTCTGTTCAAGCGCCATCTAC | 1.13 RPM ratio (pull-down/input)
42 | GATGATTGTTCTCCCAGCTGATGAATTTCGTATTTCGAGTAAACAAATTTTCCTAATCTTTCTGTTCAAGCGCCATCTAC | 0.973 RPM ratio (pull-down/input)

Row | Sequence | binding signal
43 | GATGATTGTTCTCCCAGCTGATGAATTGCCATATTCGAGTAAACAAATTTTCCTAATCTTTCTGTTCAAGCGCCATCTAC | 1.13 RPM ratio (pull-down/input)
44 | GATGATTGTTCTCCCAGCTGATGAATTCCTTATGTCGAGTAAACAAATTTTCCTAATCTTTCTGTTCAAGCGCCATCTAC | 0.898 RPM ratio (pull-down/input)
45 | GATGATTGTTCTCCCAGCTGATGAATTCAGCGTATCGAGTAAACAAATTTTCCTAATCTTTCTGTTCAAGCGCCATCTAC | 0.968 RPM ratio (pull-down/input)
46 | GATGATTGTTCTCCCAGCTGATGAATTATGAAGATCGAGTAAACAAATTTTCCTAATCTTTCTGTTCAAGCGCCATCTAC | 0.955 RPM ratio (pull-down/input)
47 | GATGATTGTTCTCCCAGCTGATGAATTTTTGGTGTCGAGTAAACAAATTTTCCTAATCTTTCTGTTCAAGCGCCATCTAC | 0.926 RPM ratio (pull-down/input)
48 | GATGATTGTTCTCCCAGCTGATGAATTTGATTGTTCGAGTAAACAAATTTTCCTAATCTTTCTGTTCAAGCGCCATCTAC | 1.39 RPM ratio (pull-down/input)
49 | GATGATTGTTCTCCCAGCTGATGAATTATTCACGTCGAGTAAACAAATTTTCCTAATCTTTCTGTTCAAGCGCCATCTAC | 1 RPM ratio (pull-down/input)
50 | GATGATTGTTCTCCCAGCTGATGAATTCCTAGTGTCGAGTAAACAAATTTTCCTAATCTTTCTGTTCAAGCGCCATCTAC | 0.912 RPM ratio (pull-down/input)
51 | GATGATTGTTCTCCCAGCTGATGAATTCCCCCCCTCGAGTAAACAAATTTTCCTAATCTTTCTGTTCAAGCGCCATCTAC | 0.762 RPM ratio (pull-down/input)
52 | GATGATTGTTCTCCCAGCTGATGAATTCACGGAGTCGAGTAAACAAATTTTCCTAATCTTTCTGTTCAAGCGCCATCTAC | 0.794 RPM ratio (pull-down/input)
53 | GATGATTGTTCTCCCAGCTGATGAATTGGATTACTCGAGTAAACAAATTTTCCTAATCTTTCTGTTCAAGCGCCATCTAC | 0.882 RPM ratio (pull-down/input)
54 | GATGATTGTTCTCCCAGCTGATGAATTCGTTGGCTCGAGTAAACAAATTTTCCTAATCTTTCTGTTCAAGCGCCATCTAC | 0.774 RPM ratio (pull-down/input)
55 | GATGATTGTTCTCCCAGCTGATGAATTGCCCCTATCGAGTAAACAAATTTTCCTAATCTTTCTGTTCAAGCGCCATCTAC | 0.967 RPM ratio (pull-down/input)
56 | GATGATTGTTCTCCCAGCTGATGAATTTACTGTCTCGAGTAAACAAATTTTCCTAATCTTTCTGTTCAAGCGCCATCTAC | 1.12 RPM ratio (pull-down/input)
57 | GATGATTGTTCTCCCAGCTGATGAATTCCTGTCCTCGAGTAAACAAATTTTCCTAATCTTTCTGTTCAAGCGCCATCTAC | 0.842 RPM ratio (pull-down/input)
58 | GATGATTGTTCTCCCAGCTGATGAATTCGGTACATCGAGTAAACAAATTTTCCTAATCTTTCTGTTCAAGCGCCATCTAC | 0.991 RPM ratio (pull-down/input)
59 | GATGATTGTTCTCCCAGCTGATGAATTCCATAATTCGAGTAAACAAATTTTCCTAATCTTTCTGTTCAAGCGCCATCTAC | 0.893 RPM ratio (pull-down/input)
60 | GATGATTGTTCTCCCAGCTGATGAATTGCAGCGATCGAGTAAACAAATTTTCCTAATCTTTCTGTTCAAGCGCCATCTAC | 1.02 RPM ratio (pull-down/input)
61 | GATGATTGTTCTCCCAGCTGATGAATTCCTGCTCTCGAGTAAACAAATTTTCCTAATCTTTCTGTTCAAGCGCCATCTAC | 0.771 RPM ratio (pull-down/input)
62 | GATGATTGTTCTCCCAGCTGATGAATTAGGTTACTCGAGTAAACAAATTTTCCTAATCTTTCTGTTCAAGCGCCATCTAC | 0.929 RPM ratio (pull-down/input)
63 | GATGATTGTTCTCCCAGCTGATGAATTGAATGTGTCGAGTAAACAAATTTTCCTAATCTTTCTGTTCAAGCGCCATCTAC | 1.01 RPM ratio (pull-down/input)
